# Source: PubChem BioAssay (EPA / NIEHS)
# Where “and” joins values, the source holds several entries; their conditions need not be identical. Equal values may be shown once. The shares of active, inactive and inconclusive entries below differ from those in the screen. A potency beside an inconclusive call is a rough fit, not a confirmed value. Calls of active or inactive are those of the source. Rule for the calls: active = hit-call score of the fitted dose curve at least 0.9, where 1 is the maximum; inconclusive = response in the unintended direction; inactive = score below 0.9.
# Read-out: HMG-CoA synthase (HMGCS2), HMGCS2 (gene 3158)
# Test: CLD_HMGCS2_24hr: CellzDirect (CLD) Gene Expression Assay for HMG-CoA synthase (HMGCS2) at 24 hours (AID 2283691)
# Description: CLD_24hr is a cell-based, multiplexed-readout assay that uses hepatocyte, a human liver primary cell, with measurements taken at 24 hours after chemical dosing in a 96-well plate.CLD_HMGCS2_24hr is one of 16 assay component(s) measured or calculated from the CLD_24hr assay. It is designed to make measurements of mRNA induction, a form of inducible reporter, as detected with chemiluminescence signals by Quantitative Nuclease Protection Assay (qNPA) technology.Data from the assay component CLD_HMGCS2_24hr was analyzed at the endpoint, CLD_HMGCS2_24hr, in the positive analysis fitting direction relative to DMSO as the negative control and baseline of activity. Using a type of inducible reporter, gain-of-signal activity can be used to understand changes in the reporter gene as they relate to the gene HMGCS2. Furthermore, this assay endpoint can be referred to as a primary readout. To generalize the intended target to other relatable targets, this assay endpoint is annotated to the lyase intended target family, where subfamily is HMG-CoA synthase.
# Human hepatocyte cultures were treated daily for two consecutive days with fresh dosing solutions containing appropriate concentrations of the 320 ToxCast chemicals (chemical identities were blinded to CellzDirect and other ToxCast collaborators), vehicle control (0.2% DMSO), and positive control inducers as summarized in Table 1. Due to the large number of treatment groups and chemicals examined, the ToxCast chemicals were divided into two groups (spanning two independent cultures of hepatocytes from separate donor preparations (Hu778: ToxCast plates 1 and 2; Hu776: ToxCast plates 3 and 4). Each preparation of human hepatocyte cultures was treated with respective vehicle control, medium only control, set of six positive controls/reference chemicals for the five hepatic receptor pathways, and a subset of eight of the ToxCast chemicals (indoxacarb, pyrithiobac-sodium, norflurazon, cyhalofop-butyl, methomyl, thiram, acetochlor, and propiconazole). These replicate data, coupled with internal replicates designed within the blinded ToxCast chemical library, provided additional data to evaluate interindividual differences between hepatocyte preparations and their potential impact on chemical profiles.Cell morphology and integrity were evaluated using phase-contrast microscopy as an indicator of hepatocyte cell health (Tyson & Green, 1987). Cultures for each treatment group (i.e., media, vehicle [0.2% DMSO], positive control inducers [multiple concentrations], and the ToxCast chemicals [multiple concentrations]) were observed and cell morphology was assessed relative to vehicle control cultures at each harvest time point (0, 6, 24, or 48 h). […] Images were evaluated at the conclusion of the study to assess changes in cell integrity and account for the effects of chemical exposure on uncharacteristic changes in concentration-dependent gene expression profiles. The results from these determinations of apparent cytotoxicity were annotated (yes/no) alongside the corresponding qNPA data for reference.At the conclusion of each treatment period, hepatocyte cultures (96-well) were washed with 1 volume of HBSS, lysed by addition of 25 ul ArrayPlate lysis buffer (HTG, Tucson, AZ), and 70 ul/well of Denaturation Oil, denatured by incubation at 95C for 10 min, and frozen at approximately -70C until analysis by nuclease protection assay (qNPA) (Roberts et al., 2007). For qNPA analysis, cell lysates were thawed at 50C for approximately 30 min, qNPA probes were added, and samples were incubated at 95C for 10 min to begin the detection process by denaturing the target RNA, dissociating the duplexes and secondary structure hybridization. At the conclusion of the hybridization period, S1 nuclease reagent was added to each sample to digest all nonprotected nucleotides at 50C for 60-90 min. […]
SMILES,AC50,outcome
COc1cc(OC)nc(NC(=O)NS(=O)(=O)c2ncccc2OCC(F)(F)F)n1,inconclusive: 20 µM,–
CNC(=O)Oc1cccc2c1OC(C)(C)O2,inconclusive: 0.263 µM,–
O=S1OCC2C(CO1)C1(Cl)C(Cl)=C(Cl)C2(Cl)C1(Cl)Cl (stereo not given),inconclusive: 20 µM,–
CCC(C)(CC)c1cc(NC(=O)c2c(OC)cccc2OC)on1,inconclusive: 5.25 µM,–
CNC(=O)Oc1cccc2ccccc12,inconclusive: 20 µM,–
O=C(Nc1ccccc1)Nc1cnns1,inconclusive: 0.141 µM,–
CCc1nn(C)c(C(=O)NCc2ccc(C(C)(C)C)cc2)c1Cl,inconclusive: 1.89 µM,–
Nc1c(Cl)c(F)nc(OCC(=O)O)c1Cl,inconclusive: 0.136 µM,–
CC1(C)C(C=C(Cl)Cl)C1C(=O)OC(C#N)c1ccc(F)c(Oc2ccccc2)c1 (stereo not given),inconclusive: 0.0004 µM,–
C[N+]1(C)CCCCC1,–,inactive
CC(C)(C)c1ccc(CSc2cnn(C(C)(C)C)c(=O)c2Cl)cc1,inconclusive: 20 µM,–
CO/C=C(/C(=O)OC)c1ccccc1Oc1cc(Oc2ccccc2C#N)ncn1,inconclusive: 0.0124 µM,–
CCCCOC(=O)c1ccccc1C(=O)OCCCC,inconclusive: 0.0249 µM,inactive
CCOP(=S)(Oc1cnc(C(C)(C)C)nc1)OC(C)C (stereo not given),inconclusive: 3.76 µM,–
CC(C)(C)C(=O)C(Oc1ccc(Cl)cc1)n1cncn1 (stereo not given),inconclusive: 0.543 µM,–
CCNP(=S)(OC)O/C(C)=C/C(=O)OC(C)C (stereo not given),inconclusive: 20 µM,–
COc1nc(C)nc(NC(=O)NS(=O)(=O)c2ccccc2Cl)n1,inconclusive: 1.99 µM and inconclusive: 20 µM,–
COc1nn(CSP(=S)(OC)OC)c(=O)s1,inconclusive: 20 µM,–
C=CC1(C)OC(=O)N(c2cc(Cl)cc(Cl)c2)C1=O (stereo not given),–,inactive

SMILES,AC50,outcome
OC(c1ccc(Cl)cc1)(c1ccc(Cl)cc1)C(Cl)(Cl)Cl,inconclusive: 3.97 µM,–
COP(=O)(OC)OC(Br)C(Cl)(Cl)Br (stereo not given),inconclusive: 20 µM,–
CNC(=O)ON=C(SC)C(=O)N(C)C,–,inactive
COC(=O)C(C)Oc1ccc(Oc2ccc(Cl)cc2Cl)cc1 (stereo not given),inconclusive: 0.00197 µM,inactive
CC(C)(C)C(O)/C(=C\c1ccc(Cl)cc1Cl)n1cncn1 (stereo not given),inconclusive: 12.9 µM,–
COP(=S)(OC)Oc1nc(Cl)c(Cl)cc1Cl,–,inactive
CNC(=O)N(C)c1nnc(C(C)(C)C)s1,inconclusive: 0.00711 µM,–
CCON=C(CC)C1=C(O)CC(c2c(C)cc(C)cc2C)CC1=O (stereo not given),–,inactive
CC(C)OC(=O)Nc1cccc(Cl)c1,inconclusive: 20 µM,–
Nc1c(Cl)c(Cl)nc(C(=O)O)c1Cl,–,inactive
CC(C)N1C(=O)N(c2ccccc2)CSC1=NC(C)(C)C,inconclusive: 20 µM,–
COc1nc(C)nc(NC(=O)NS(=O)(=O)c2ccccc2CCC(F)(F)F)n1,inconclusive: 20 µM,inactive
O=C1C2CC=CCC2C(=O)N1SC(Cl)(Cl)Cl (stereo not given),inconclusive: 2.01 µM,–
CC[C@H](C)[C@H]1O[C@]2(C=C[C@@H]1C)C[C@@H]1C[C@@H](C/C=C(\C)[C@@H](O[C@H]3C[C@H](OC)[C@@H](O[C@H]4C[C@H](OC)[C@@H](NC)[C@H](C)O4)[C@H](C)O3)[C@@H](C)/C=C/C=C3\CO[C@@H]4[C@H](O)C(C)=C[C@@H](C(=O)O1)[C@]34O)O2,–,inactive
Oc1cc(Cl)ccc1Oc1ccc(Cl)cc1Cl,–,inactive
CSc1nnc(C(C)(C)C)c(=O)n1N,inconclusive: 7.11 µM,–
CS(=O)(=O)c1cc(C(F)(F)F)ccc1C(=O)c1cnoc1C1CC1,inconclusive: 29.8 µM,–
CC1(C(=O)Nc2ccc(O)c(Cl)c2Cl)CCCCC1,inconclusive: 0.0115 µM,–
